About 2,200 (0.71%) of roughly 310,000 compounds showed an effect of 50% or more. The effect is printed as a negative number. Some of the results follow.

Sequence of human ether-à-go-go-related gene (hERG) potassium channel (Q12809 whole entry, looked up): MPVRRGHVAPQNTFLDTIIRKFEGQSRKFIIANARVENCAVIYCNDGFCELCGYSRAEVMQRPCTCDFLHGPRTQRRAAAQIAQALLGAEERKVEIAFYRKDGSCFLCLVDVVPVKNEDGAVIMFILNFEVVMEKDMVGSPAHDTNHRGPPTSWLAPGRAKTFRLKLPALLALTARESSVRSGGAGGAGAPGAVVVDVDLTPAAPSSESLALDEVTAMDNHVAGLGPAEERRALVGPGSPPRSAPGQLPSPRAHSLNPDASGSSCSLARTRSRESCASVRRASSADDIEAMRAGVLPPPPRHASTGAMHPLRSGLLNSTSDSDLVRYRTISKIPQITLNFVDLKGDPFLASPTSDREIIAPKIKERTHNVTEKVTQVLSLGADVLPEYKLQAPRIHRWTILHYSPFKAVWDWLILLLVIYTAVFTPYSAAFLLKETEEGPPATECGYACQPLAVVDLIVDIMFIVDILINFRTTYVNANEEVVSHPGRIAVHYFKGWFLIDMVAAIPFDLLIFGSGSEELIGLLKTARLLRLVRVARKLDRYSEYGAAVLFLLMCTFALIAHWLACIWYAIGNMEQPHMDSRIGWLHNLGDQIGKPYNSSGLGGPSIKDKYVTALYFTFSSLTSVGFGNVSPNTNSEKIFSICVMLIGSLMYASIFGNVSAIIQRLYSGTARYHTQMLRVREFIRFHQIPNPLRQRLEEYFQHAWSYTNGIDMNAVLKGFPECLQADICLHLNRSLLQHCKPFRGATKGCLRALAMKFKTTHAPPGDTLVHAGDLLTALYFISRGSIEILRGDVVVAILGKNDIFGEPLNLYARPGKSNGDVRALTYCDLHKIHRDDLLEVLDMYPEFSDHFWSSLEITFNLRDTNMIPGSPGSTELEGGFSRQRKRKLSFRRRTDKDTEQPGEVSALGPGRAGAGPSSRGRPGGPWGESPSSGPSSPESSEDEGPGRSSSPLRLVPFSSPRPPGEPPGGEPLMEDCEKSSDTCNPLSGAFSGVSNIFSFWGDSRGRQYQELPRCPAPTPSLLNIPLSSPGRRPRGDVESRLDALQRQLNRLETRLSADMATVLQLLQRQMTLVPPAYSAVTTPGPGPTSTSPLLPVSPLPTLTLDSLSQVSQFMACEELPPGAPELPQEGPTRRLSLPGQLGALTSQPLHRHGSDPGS

This experiment has as its target human ether-à-go-go-related gene (hERG) potassium channel (human, UniProt Q12809). Description: primary screen, population patch clamp on CHO cells stably expressing hERG.
As for `CCCCNC(=O)C(=O)N/N=C/c1ccc(OCc2ccccc2)cc1`, the “hERG current change (%, negative = inhibition) at 1uM” value came out at 7.28%. With `O=C(NC1(C(F)(F)F)C(=O)Nc2c1c(=O)[nH]c(=O)n2Cc1ccco1)C1CC1` (stereo not drawn) the figure was 0.186%; with `N#Cc1ccc(OCC(=O)NCC2(N3CCCCC3)CCCCC2)cc1`, -34.6%; with `COc1ccc(C(=O)Cc2cc3cccc(OC)c3oc2=O)cc1`, 14.6%. With `O=C(N/N=C/c1c(Cl)cccc1Cl)c1n[nH]c2c1CCCC2` the figure was 4.97%; with `COc1ccccc1OCCCN1C(=O)C(=O)c2cccc(C)c21`, 8.36%; with `COc1ccccc1CNC(=O)COC(=O)c1ccccc1SCC(=O)N1CCCC1`, 1.19%. With `O=C(Nc1ccccc1)NC1CCCCNC1=O` (stereo not drawn) the figure was 10.8%; with `COc1ccc(S(=O)(=O)N2CCC(C(=O)Nc3nnc(C)s3)CC2)cc1OC`, 20.4%. `Cc1cccc(NC(=O)Cn2c(=O)oc3ccccc32)c1`: the “hERG current change (%, negative = inhibition) at 1uM” value was determined as 12.1%. With `Brc1ccc(-c2nc3ncccn3c2NC2CCCCC2)o1` the figure was 1.03%; with `COCCN1C2=C(C(=O)CC(C)(C)C2)C(c2ccc(OC)c(OC)c2)C2=C1CC(C)(C)CC2=O`, 8.61%; with `CCCC(=NCC(=O)O)C1=C(O)C(C(=O)OC)C(C)(C)CC1=O` (stereo not drawn), 3.3%.

With `O=C1NC(=S)N/C1=C/c1ccc2c(c1)OCO2`, the “hERG current change (%, negative = inhibition) at 1uM” value came out at 9.68%. Consider `COc1ccc(S(=O)(=O)N2CCCCCC2)cc1C(=O)Nc1cc(C)ccn1`, for which the “hERG current change (%, negative = inhibition) at 1uM” value was -12.7%.

In the case of `COc1cccc(N(CC(=O)Nc2cccc(N(C)S(C)(=O)=O)c2)S(C)(=O)=O)c1`, the “hERG current change (%, negative = inhibition) at 1uM” value was 16%. With `COc1ccc(/C=N/Nc2nc(N3CCCC3)nc(N3CCCC3)n2)cc1` the figure was 14.3%.

`CCOC(=O)C1(Cc2cccc(F)c2)CCN(Cc2cnc(C)s2)CC1`: the “hERG current change (%, negative = inhibition) at 1uM” value is listed as 7.22%.

Regarding `CNc1snc(C)c1C(=O)OC(C)C(=O)Nc1ccccc1` (stereo not drawn), the “hERG current change (%, negative = inhibition) at 1uM” value worked out at 6.39%. With `CNC(=O)c1sc(SC)cc1-c1ccc(Cl)cc1` the figure was 8.73%; with `CCN(C(=O)c1c(-c2ccccc2Cl)noc1C)C1CCCCC1`, 11.4%. With `O=[N+]([O-])c1cc(Cl)ccc1-c1nc(-c2ccncc2)no1` the figure was -0.683%; with `N#CCCN(Cc1cccnc1)C(=S)NC1CC2C=CC1C2` (stereo not drawn), 8.45%; with `COC(=O)C1=C(C)OC(N)=C(C#N)C12C(=O)Nc1ccccc12` (stereo not drawn), 1.84%. With `COc1cc(NC(=O)CSc2nncn2C)cc(OC)c1OC` the figure was 6.96%.

Regarding `CCCCCCCCCC(=O)Nn1cnc2ccccc2c1=O`, the “hERG current change (%, negative = inhibition) at 1uM” value is 6.75%. With `CCOC(=O)CCC(=O)Nc1ccc(S(=O)(=O)N2CCc3ccccc32)cc1` the figure was 14.4%; with `CC(=N\O)/C(CN(C)C)=N/O`, 6.42%. With `O=C(Nc1ccc(-c2ccccc2)cc1)c1ccccc1` the figure was 8.19%; with `Cc1ccccc1OCC(=O)N1CCCCCCC1`, 23.5%. With `COc1cc(OC)cc(C(=O)Nc2nc(CC(=O)NCc3ccc(F)cc3)cs2)c1` the figure was 8.38%; with `Cc1ccc(OCCNC(=O)C2CCCCC2)cc1`, 0.357%; with `CSc1ccccc1NC(=O)CN(Cc1ccc(Cl)cc1)S(C)(=O)=O`, 5.03%. `O=C(COC(=O)c1cccc(S(=O)(=O)N2CCCCC2)c1)NC1CCCc2ccccc21` (stereo not drawn): the “hERG current change (%, negative = inhibition) at 1uM” value is reported as 8.18%. With `CO/N=C/c1ccc(Oc2ccc(C)cc2)c([N+](=O)[O-])c1` the figure was 7.97%; with `O=C(Nc1nnc(-c2ccccc2SCc2ccccc2)s1)Nc1ccccc1F`, 18%; with `COc1cc(/C(C)=N/NC(=O)CSc2nc3ccccc3[nH]2)ccc1O`, 6.41%.

Regarding `COC(=O)COc1cccc2c(=O)n(CC(=O)N3CCC(C)CC3)ccc12`, the “hERG current change (%, negative = inhibition) at 1uM” value is on record as 7.87%. For the compound `CC(=O)Nc1ccc(Nc2nc(C)c([N+](=O)[O-])c(N(C)c3ccccc3)n2)cc1`, the “hERG current change (%, negative = inhibition) at 1uM” value came out at 8.02%. With `CN(Cc1cn(C)nc1-c1cccc(Cl)c1)C1CCOCC1` the figure was 15.5%; with `COc1cccc(NC(=O)CN(C)C(=O)c2cc3ccccc3cc2OC)c1`, -0.965%; with `CCOC(=O)c1ccccc1NC(=O)c1ccc2nc[nH]c2c1`, 14.5%.

Consider `COc1ccc(CC(=O)NNc2ncnc3c2cnn3C)cc1`, for which the “hERG current change (%, negative = inhibition) at 1uM” value was found to be 8%. With `CC(NC(=O)c1ccc2c(c1)OCO2)C1CCCO1` (stereo not drawn) the figure was -0.0414%; with `CCOc1ccc(C(c2nnnn2Cc2ccccc2)N2CCN(C(=O)c3ccco3)CC2)cc1.Cl` (stereo not drawn), -7.21%.

These data come from article PMC4336329 (PLoS ONE, 2015).
